# From PubChem BioAssay AID488969 (Vanderbilt High Throughput Screening Facility, 2010)
# The full ranking holds about 110,000 compounds; the median of “z-score” is about -0.1, and the highest 2% start at about 2. The list shows a part of the results. Calls of active or inactive are those of the source.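 How the source made its calls: active means z-score in the third read window above 3 or below -3; inactive means the rest.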
# Target: Metabotropic glutamate receptor 8 (Rattus norvegicus) (UniProt P70579)
# Chain of UniProt P70579 (P70579 whole entry, looked up): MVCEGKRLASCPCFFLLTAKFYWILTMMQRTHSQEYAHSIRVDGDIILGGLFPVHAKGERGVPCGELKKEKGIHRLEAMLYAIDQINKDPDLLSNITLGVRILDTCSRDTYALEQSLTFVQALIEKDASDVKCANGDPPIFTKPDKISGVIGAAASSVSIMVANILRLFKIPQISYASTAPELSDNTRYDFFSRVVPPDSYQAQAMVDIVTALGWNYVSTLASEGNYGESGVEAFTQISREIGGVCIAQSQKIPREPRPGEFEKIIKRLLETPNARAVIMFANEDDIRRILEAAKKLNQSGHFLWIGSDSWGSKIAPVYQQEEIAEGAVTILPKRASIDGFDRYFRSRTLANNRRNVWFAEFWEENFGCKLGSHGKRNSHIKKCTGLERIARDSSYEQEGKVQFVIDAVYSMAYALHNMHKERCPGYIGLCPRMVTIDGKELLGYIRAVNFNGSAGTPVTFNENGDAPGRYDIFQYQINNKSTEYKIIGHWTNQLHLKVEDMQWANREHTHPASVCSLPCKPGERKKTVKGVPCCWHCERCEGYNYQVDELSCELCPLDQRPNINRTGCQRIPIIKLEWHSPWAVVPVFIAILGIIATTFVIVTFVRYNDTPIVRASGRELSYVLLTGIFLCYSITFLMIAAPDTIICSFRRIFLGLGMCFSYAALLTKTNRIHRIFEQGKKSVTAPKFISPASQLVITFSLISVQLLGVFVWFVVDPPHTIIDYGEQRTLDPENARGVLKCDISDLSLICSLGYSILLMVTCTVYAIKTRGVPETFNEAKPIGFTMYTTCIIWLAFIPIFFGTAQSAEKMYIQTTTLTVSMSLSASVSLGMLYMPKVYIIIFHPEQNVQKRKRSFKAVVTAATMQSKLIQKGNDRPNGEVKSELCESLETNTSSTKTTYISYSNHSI
# Assay: mGluR8 Gi/Go-coupled signaling modulation – cell-based, rat, thallium flux, HTS, primary screen (AID 488969)
# Conditions: HEK293 rat mGluR8, GIRK (G protein-gated inwardly rectifying potassium channel) thallium flux, FluoZin2; at 10 µM; stronger effect = higher value; submaximal glutamate (EC20) added with thallium
row,SMILES,z-score
1,O=C1SC(SCc2ccccc2)=N/C1=C\c1ccco1,-0.178
2,CC(C)c1nc2sc3c(NCc4ccco4)ncnc3c2c2c1COC(C)(C)C2,0.296
3,O=C(CSc1nnc(C2COc3ccccc3O2)o1)N1CCCc2ccccc21 (stereo not given),-0.448
4,CCC(OC(=O)c1cc2sccc2n1C)C(=O)NCc1ccco1 (stereo not given),-0.11
5,O=S(=O)(Nc1nc2ccccc2nc1Nc1cccc(S(=O)(=O)N2CCCCC2)c1)c1ccccc1,-1.71
6,COc1ccc(Cn2nnnc2C(c2cc3cc(C)ccc3[nH]c2=O)N2CCOCC2)cc1 (stereo not given),-0.114
7,CCOC(=O)C1=C(C)Nc2sc(C(=O)c3ccc(Br)cc3)c(N)c2C1c1ccc(C(=O)OC)cc1 (stereo not given),-0.179
8,CCCCOc1ccccc1Cn1c(=O)oc2ccc(C)cc21,0.822
9,O=C(/C=C/c1ccc(Cl)c([N+](=O)[O-])c1)Nc1ccc(N2CCCC2)cc1,-0.409
10,O=C(CN1C(=O)NC(Cc2c[nH]c3ccccc23)C1=O)Nc1cccc(S(=O)(=O)N2CCCCCC2)c1 (stereo not given),0.128
11,CC1CCN(C(=O)COC(=O)[C@H](C)NS(=O)(=O)/C=C/c2ccccc2)CC1,-0.222
12,Cc1ccc([N+](=O)[O-])cc1NC(=S)NC(=O)C(C)(C)C,0.72
13,CC(C)CN(CC(C)C)C(=O)CC(=O)NC(=O)c1ccc(Cl)cc1,0.196
14,Cc1nc(NC(=O)c2ccccc2)nc2cc3c(cc12)OCO3,-0.307
15,CC(C)(C)c1cc(C(F)(F)F)c(C#N)c(=O)[nH]1,-0.922
16,O=C(Nc1cnccn1)c1csc2ccccc12,0.0259
17,S=c1nc(-c2ccco2)[nH][nH]1,-0.896
18,COC(=O)c1ccc(C(=O)OC)c(NC(=O)COC(=O)C23CC4CC(CC(O)(C4)C2)C3)c1,-1.04
19,COc1ccc(-n2nnnc2SCC(=O)N2C(C)CCCC2C)c(OC)c1 (stereo not given),-0.0118
20,COCCNC(=O)NC1(C(F)(F)F)Oc2ccc(Cl)cc2O1 (stereo not given),-0.257
21,C/C(Cl)=C\Cn1c(NCCCn2ccnc2)nc2c1c(=O)n(C)c(=O)n2C,-0.632
22,COc1ccccc1-c1nc(C#N)c(N2CCN(C(c3ccccc3)c3ccccc3)CC2)o1,-0.485
23,COCc1nnc(NC(=O)c2ccc(S(=O)(=O)N3CCCCCC3)cc2)o1,-0.164
24,CCCCN(C)C(=O)c1cn(C)c2ccc(S(=O)(=O)N(C)C)cc2c1=O,-0.337
25,N#Cc1cccc(NC(=O)CSc2ccccc2)c1,0.496
26,Cc1ncc([N+](=O)[O-])n1Cc1cccc2ccccc12,0.0129
27,CCOC(=O)CC1C(=O)NCCN1C(=O)Nc1ccc(Cl)cc1 (stereo not given),0.0695
28,C=CCn1c(SCCOC)nc2c1c(=O)[nH]c(=O)n2C,-0.444

row,SMILES,z-score
1,Cc1nnc(SCc2ccc(C(=O)c3ccc(Cl)cc3)o2)n1-c1ccccc1,-0.404
2,O=C(NC1CCCCC1)n1c(=O)oc2ccccc21,0.121
3,COc1cccc(-c2nnc(SCc3ccccn3)n2C)c1,0.0362
4,O=C(NCc1ccco1)c1nn2c(C(F)(F)F)cc(-c3cccs3)nc2c1Cl,-0.682
5,O=C(O)CSc1nnc(Cc2ccccc2)n1-c1ccccc1,0.405
6,Cc1cc(C(=O)CN2CCC(C)CC2)c(C)n1-c1ccc(F)cc1,0.978
7,CCN(CC)c1ccc(NC(=O)c2ccccc2F)cc1S(=O)(=O)Nc1ccccc1OC,0.0987
8,CSc1nc2ccc(Cl)cc2[nH]1,0.0994
9,CC(=O)NC(CCS(C)(=O)=O)C(=O)Nc1ccccc1Cl (stereo not given),-0.34
10,Clc1ccc2oc(-c3ccccn3)nc2c1,-0.361
11,CCCNC(=O)c1ccc2c(c1)C1C3CCC(C3)C1C(c1ccccc1)N2 (stereo not given),-0.506
12,CC(C)(C)S(=O)c1cccs1 (stereo not given),0.555
13,C/C(=N\NC(=O)c1nn(C)cc1Br)c1ccc(NC(=O)c2ccncc2)cc1,-0.19
14,COC(=O)C1=C(C)N(C(C)C)C(=O)C1(NC(C)=O)C(F)(F)F (stereo not given),-0.0522
15,CN(CCc1ccccn1)Cc1ccc(Cl)cc1,0.276
16,c1ccc(COc2ccc(OCCCCN3CCCCC3)cc2)cc1,2.79
17,C=CCNC(=S)NNC(=O)c1cccc2ccccc12,0.169
18,CCOCCCNC(=O)c1ccccc1Br,-0.0783
19,O=C(CSc1nc(CCC2CCCC2)nc2ccccc12)NCc1ccc2c(c1)OCO2,active: 8.15
20,N#C/C(=C\c1ccc([N+](=O)[O-])cc1)C(=O)Nc1ccccc1O,-0.211
21,O=c1c(C=Nc2ccc(Oc3ccccc3)cc2)c[nH]n1-c1cccc(Cl)n1,-0.203
22,COc1cc(N=C2C(=O)N3CCCc4cccc2c43)cc(OC)c1,-0.532
23,CCCCN1C(=O)Cc2c1nc(N)c1c(N)nc(N(CCC)CCC)c(C#N)c21,-0.15
24,CCOc1ccccc1NC(=O)COn1nnc2ccc(Cl)cc21,-0.25
25,CCOC(=O)c1c(C)sc2c1N(C(=O)CCl)c1cc(Cl)ccc1S2,-0.0907
26,COc1ccc(S(=O)(=O)N(C)CC(=O)Nc2cccc(C(C)=O)c2)cc1,0.0743
27,CCOC(=O)N1CCC(NC(=O)C2CCN(c3ccc(N4CCOCC4)nn3)CC2)CC1,-0.202
